# The list shows a part of the results.
# B1: MGL (Homo sapiens), Q8IUN9 (protein)
# chain: MTRTYENFQYLENKVKVQGFKNGPLPLQSLLQRLCSGPCHLLLSLGLGLLLLVIICVVGFQNSKFQRDLVTLRTDFSNFTSNTVAEIQALTSQGSSLEETIASLKAEVEGFKQERQAGVSELQEHTTQKAHLGHCPHCPSVCVPVHSEMLLRVQQLVQDLKKLTCQVATLNNNASTEGTCCPVNWVEHQDSCYWFSHSGMSWAEAEKYCQLKNAHLVVINSREEQNFVQKYLGSAYTWMGLSDPEGAWKWVDGTDYATGFQNWKPGQPDDWQGHGLGGGEDCAHFHPDGRWNDDVCQRPYHWVCEAGLGQTSQESH
# Assays:
# Experiment in all cases: glycan array binding signal (z-score within array); higher = stronger binding
# Details in all cases: glycan notation: IUPAC condensed, linker removed
# [1] = molecular target: Neu5Ac(a2-3)Gal6S(b1-4)[Fuc(a1-3)]GlcNAc
# Procedure, shortened: (§1)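 Columns mapping to the same glycan were averaged after glycan names were converted to IUPAC-condensed notation. The data come from 3228 arrays in the Consortium for Functional Glycomics database, limited to those with an available protein sequence. Binding is reported as a within-array Z-score averaged across arrays of one protein sequence and across linkers.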
# Neu5Ac(a2-3)GalNAc = molecular target: Neu5Ac(a2-3)GalNAc
# Procedure, shortened: as §1
# [2] = molecular target: Neu5Ac(a2-3)GalNAc(b1-4)GlcNAc
# Procedure, shortened: as §1
# [3] = molecular target: Neu5Ac(a2-3)[GalNAc(b1-4)]Gal(b1-4)Glc
# Procedure, shortened: as §1
# [4] = molecular target: Neu5Ac(a2-3)[GalNAc(b1-4)]Gal(b1-4)GlcNAc
# Procedure, shortened: as §1
# [5] = molecular target: Neu5Ac(a2-3)[GalNAc(b1-4)]Gal(b1-4)GlcNAc(b1-3)GalNAc
# Procedure, shortened: as §1
# [6] = molecular target: Neu5Ac(a2-3)[Neu5Ac(a2-6)]GalNAc
# Procedure, shortened: as §1
# Neu5Ac(a2-6)Gal = molecular target: Neu5Ac(a2-6)Gal
# Procedure, shortened: as §1
# [7] = molecular target: Neu5Ac(a2-6)Gal(b1-3)GlcNAc(b1-3)[Gal(b1-4)GlcNAc(b1-6)]Gal(b1-4)Glc
# Procedure, shortened: as §1
# Neu5Ac(a2-6)Gal(b1-4)Glc = molecular target: Neu5Ac(a2-6)Gal(b1-4)Glc
# Procedure, shortened: as §1
# [8] = molecular target: Neu5Ac(a2-6)Gal(b1-4)GlcNAc
# Procedure, shortened: as §1
# [9] = molecular target: Neu5Ac(a2-6)Gal(b1-4)GlcNAc(b1-2)Man
# Procedure, shortened: as §1
# [10] = molecular target: Neu5Ac(a2-6)Gal(b1-4)GlcNAc(b1-2)Man(a1-3)Man(b1-4)GlcNAc(b1-4)GlcNAc
# Procedure, shortened: as §1
# [11] = molecular target: Neu5Ac(a2-6)Gal(b1-4)GlcNAc(b1-2)Man(a1-3)[Gal(b1-4)GlcNAc(b1-2)Man(a1-6)]Man(b1-4)GlcNAc(b1-4)GlcNAc
# Procedure, shortened: as §1
# [12] = molecular target: Neu5Ac(a2-6)Gal(b1-4)GlcNAc(b1-2)Man(a1-3)[GlcNAc(b1-2)Man(a1-6)]Man(b1-4)GlcNAc(b1-4)GlcNAc
# Procedure, shortened: as §1
# [13] = molecular target: Neu5Ac(a2-6)Gal(b1-4)GlcNAc(b1-2)Man(a1-3)[GlcNAc(b1-4)][Neu5Ac(a2-6)Gal(b1-4)GlcNAc(b1-2)Man(a1-6)]Man(b1-4)GlcNAc(b1-4)GlcNAc
# Procedure, shortened: as §1
# [14] = molecular target: Neu5Ac(a2-6)Gal(b1-4)GlcNAc(b1-2)Man(a1-3)[Man(a1-6)]Man(b1-4)GlcNAc(b1-4)GlcNAc
# Procedure, shortened: as §1
# [15] = molecular target: Neu5Ac(a2-6)Gal(b1-4)GlcNAc(b1-2)Man(a1-3)[Neu5Ac(a2-3)Gal(b1-4)GlcNAc(b1-2)Man(a1-6)]Man(b1-4)GlcNAc(b1-4)GlcNAc
# Procedure, shortened: as §1
# [16] = molecular target: Neu5Ac(a2-6)Gal(b1-4)GlcNAc(b1-2)Man(a1-3)[Neu5Ac(a2-6)Gal(b1-4)GlcNAc(b1-2)Man(a1-6)]Man(b1-4)GlcNAc(b1-4)GlcNAc
# Procedure, shortened: as §1
# [17] = molecular target: Neu5Ac(a2-6)Gal(b1-4)GlcNAc(b1-2)Man(a1-3)[Neu5Ac(a2-6)Gal(b1-4)GlcNAc(b1-2)Man(a1-6)]Man(b1-4)GlcNAc(b1-4)[Fuc(a1-6)]GlcNAc
# Procedure, shortened: as §1
# [18] = molecular target: Neu5Ac(a2-6)Gal(b1-4)GlcNAc(b1-2)Man(a1-6)Man(b1-4)GlcNAc(b1-4)GlcNAc
# Procedure, shortened: as §1
# [19] = molecular target: Neu5Ac(a2-6)Gal(b1-4)GlcNAc(b1-2)Man(a1-6)[Gal(b1-4)GlcNAc(b1-2)Man(a1-3)]Man(b1-4)GlcNAc(b1-4)GlcNAc
# Procedure, shortened: as §1
# [20] = molecular target: Neu5Ac(a2-6)Gal(b1-4)GlcNAc(b1-2)Man(a1-6)[GlcNAc(b1-2)Man(a1-3)]Man(b1-4)GlcNAc(b1-4)GlcNAc
# Procedure, shortened: as §1
# [21] = molecular target: Neu5Ac(a2-6)Gal(b1-4)GlcNAc(b1-2)Man(a1-6)[Man(a1-3)]Man(b1-4)GlcNAc(b1-4)GlcNAc
# Procedure, shortened: as §1
# [22] = molecular target: Neu5Ac(a2-6)Gal(b1-4)GlcNAc(b1-2)[Neu5Ac(a2-6)Gal(b1-4)GlcNAc(b1-4)]Man(a1-3)[GlcNAc(b1-4)][Neu5Ac(a2-6)Gal(b1-4)GlcNAc(b1-2)[Neu5Ac(a2-6)Gal(b1-4)GlcNAc(b1-6)]Man(a1-6)]Man(b1-4)GlcNAc(b1-4)GlcNAc
# Procedure, shortened: as §1
# [23] = molecular target: Neu5Ac(a2-6)Gal(b1-4)GlcNAc(b1-2)[Neu5Ac(a2-6)Gal(b1-4)GlcNAc(b1-4)]Man(a1-3)[GlcNAc(b1-4)][Neu5Ac(a2-6)Gal(b1-4)GlcNAc(b1-4)Man(a1-6)]Man(b1-4)GlcNAc(b1-4)GlcNAc
# Procedure, shortened: as §1
# [24] = molecular target: Neu5Ac(a2-6)Gal(b1-4)GlcNAc(b1-2)[Neu5Ac(a2-6)Gal(b1-4)GlcNAc(b1-6)]Man(a1-6)[Neu5Ac(a2-6)Gal(b1-4)GlcNAc(b1-2)Man(a1-3)][GlcNAc(b1-4)]Man(b1-4)GlcNAc(b1-4)GlcNAc
# Procedure, shortened: as §1
# [25] = molecular target: Neu5Ac(a2-6)Gal(b1-4)GlcNAc(b1-3)Gal(b1-3)GlcNAc
# Procedure, shortened: as §1
# [26] = molecular target: Neu5Ac(a2-6)Gal(b1-4)GlcNAc(b1-3)Gal(b1-4)GlcNAc
# Procedure, shortened: as §1
# [27] = molecular target: Neu5Ac(a2-6)Gal(b1-4)GlcNAc(b1-3)Gal(b1-4)GlcNAc(b1-2)Man(a1-3)[Neu5Ac(a2-6)Gal(b1-4)GlcNAc(b1-3)Gal(b1-4)GlcNAc(b1-2)Man(a1-6)]GalNAc
# Procedure, shortened: as §1
# [28] = molecular target: Neu5Ac(a2-6)Gal(b1-4)GlcNAc(b1-3)Gal(b1-4)GlcNAc(b1-3)Gal(b1-4)GlcNAc
# Procedure, shortened: as §1
# [29] = molecular target: Neu5Ac(a2-6)Gal(b1-4)GlcNAc(b1-3)Gal(b1-4)GlcNAc(b1-3)Gal(b1-4)GlcNAc(b1-2)Man(a1-3)[Neu5Ac(a2-6)Gal(b1-4)GlcNAc(b1-3)Gal(b1-4)GlcNAc(b1-3)Gal(b1-4)GlcNAc(b1-2)Man(a1-6)]GalNAc
# Procedure, shortened: as §1
# [30] = molecular target: Neu5Ac(a2-6)Gal(b1-4)GlcNAc(b1-3)Gal(b1-4)GlcNAc(b1-3)GalNAc
# Procedure, shortened: as §1
# [31] = molecular target: Neu5Ac(a2-6)Gal(b1-4)GlcNAc(b1-3)Gal(b1-4)GlcNAc(b1-3)[Neu5Ac(a2-6)Gal(b1-4)GlcNAc(b1-3)Gal(b1-4)GlcNAc(b1-6)]GalNAc
# Procedure, shortened: as §1
# [32] = molecular target: Neu5Ac(a2-6)Gal(b1-4)GlcNAc(b1-3)Gal(b1-4)GlcNAc(b1-6)[Gal(b1-3)]GalNAc
# Procedure, shortened: as §1
# [33] = molecular target: Neu5Ac(a2-6)Gal(b1-4)GlcNAc(b1-3)Gal(b1-4)[Fuc(a1-3)]GlcNAc(b1-3)Gal(b1-4)[Fuc(a1-3)]GlcNAc
# Procedure, shortened: as §1
# [34] = molecular target: Neu5Ac(a2-6)Gal(b1-4)GlcNAc(b1-3)GalNAc
# Procedure, shortened: as §1
# [35] = molecular target: Neu5Ac(a2-6)Gal(b1-4)GlcNAc(b1-3)[Neu5Ac(a2-6)Gal(b1-4)GlcNAc(b1-6)]GalNAc
# Procedure, shortened: as §1
# [36] = molecular target: Neu5Ac(a2-6)Gal(b1-4)GlcNAc(b1-6)GalNAc
# Procedure, shortened: as §1
# [37] = molecular target: Neu5Ac(a2-6)Gal(b1-4)GlcNAc(b1-6)[Gal(b1-3)GlcNAc(b1-3)]Gal(b1-4)Glc
# Procedure, shortened: as §1
# [38] = molecular target: Neu5Ac(a2-6)Gal(b1-4)GlcNAc(b1-6)[Gal(b1-3)]GalNAc
# Procedure, shortened: as §1
# [39] = molecular target: Neu5Ac(a2-6)Gal(b1-4)GlcNAc6S
# Procedure, shortened: as §1
# Neu5Ac(a2-6)GalNAc = molecular target: Neu5Ac(a2-6)GalNAc
# Procedure, shortened: as §1
# [40] = molecular target: Neu5Ac(a2-6)GalNAc(b1-4)GlcNAc
# Procedure, shortened: as §1
# [41] = molecular target: Neu5Ac(a2-6)GalNAc(b1-4)GlcNAc6S
# Procedure, shortened: as §1
binder,measurement,setting,value
B1,glycan array binding signal (z-score),[1],-0.254
same,glycan array binding signal (z-score),Neu5Ac(a2-3)GalNAc,-0.213
same,glycan array binding signal (z-score),[2],-0.244
same,glycan array binding signal (z-score),[3],1.81
same,glycan array binding signal (z-score),[4],0.79
same,glycan array binding signal (z-score),[5],0.1
same,glycan array binding signal (z-score),[6],-0.239
same,glycan array binding signal (z-score),Neu5Ac(a2-6)Gal,-0.236
same,glycan array binding signal (z-score),[7],-0.247
same,glycan array binding signal (z-score),Neu5Ac(a2-6)Gal(b1-4)Glc,-0.248
same,glycan array binding signal (z-score),[8],-0.247
same,glycan array binding signal (z-score),[9],-0.273
same,glycan array binding signal (z-score),[10],-0.199
same,glycan array binding signal (z-score),[11],-0.244
same,glycan array binding signal (z-score),[12],-0.24
same,glycan array binding signal (z-score),[13],-0.237
same,glycan array binding signal (z-score),[14],-0.271
same,glycan array binding signal (z-score),[15],-0.245
same,glycan array binding signal (z-score),[16],-0.242
same,glycan array binding signal (z-score),[17],-0.247
same,glycan array binding signal (z-score),[18],-0.241
same,glycan array binding signal (z-score),[19],-0.241
same,glycan array binding signal (z-score),[20],-0.24
same,glycan array binding signal (z-score),[21],-0.246
same,glycan array binding signal (z-score),[22],-0.943
same,glycan array binding signal (z-score),[23],-0.478
same,glycan array binding signal (z-score),[24],-0.241
same,glycan array binding signal (z-score),[25],-0.247
same,glycan array binding signal (z-score),[26],-0.238
same,glycan array binding signal (z-score),[27],-0.213
same,glycan array binding signal (z-score),[28],-0.232
same,glycan array binding signal (z-score),[29],-0.208
same,glycan array binding signal (z-score),[30],-0.566
same,glycan array binding signal (z-score),[31],-0.228
same,glycan array binding signal (z-score),[32],-0.248
same,glycan array binding signal (z-score),[33],-0.222
same,glycan array binding signal (z-score),[34],-0.12
same,glycan array binding signal (z-score),[35],-0.224
same,glycan array binding signal (z-score),[36],-0.233
same,glycan array binding signal (z-score),[37],-0.252
same,glycan array binding signal (z-score),[38],-0.245
same,glycan array binding signal (z-score),[39],-0.253
same,glycan array binding signal (z-score),Neu5Ac(a2-6)GalNAc,1.88
same,glycan array binding signal (z-score),[40],1.59
same,glycan array binding signal (z-score),[41],0.198

# Reference: the supplement of paper PMC8728848
